# Measured values: the supplement of paper PMC12217912
# The list shows a part of the results. The full chains were built here from the parent and the listed change. Inactive controls read about 0.05.
# B1: TEV protease; numbered along this chain (parent)
# chain: MGESLFKGPRDYNPISSSICHLTNESDGHTTSLYGIGFGPFIITNKHLFRRNNGTLVVQSLHGVFKVKDTTTLQQHLVDGRDMIIIRMPKDFPPFPQKLKFREPQREERICLVTTNFQTKSMSSMVSDTSCTFPSGDGIFWKHWIQTKDGQCGSPLVSTRDGFIVGIHSASNFTNTNNYFTSVPKNFMELLTNQEAQQWVSGWRLNADSVLWGGHKVFMVKPEEPFQPVKEATQL
# Variants of: B1
# Assay: raw area under fraction-flipped curve 0-4 h after induction (AUC4h, not background-subtracted), DNA-recorder readout of cleavage of the substrate (dimensionless); higher = more cleavage of the substrate by the protease variant
# Settings: temperature: 34 °C; time window: 0-4 h after rhamnose induction
# Description: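 In vivo DNA recorder in E. coli TOP10(DE3) ΔrhaA at 34 °C. Each TEVp single-site mutant (parent TEVp 0) is paired with a single-site variant of the 7-mer TEVs (canonical ENLYFQ|S). The substrate sits between flexible linkers in a Bxb1-sfGFP-TEVs-SsrA fusion, so cleavage stabilises Bxb1 and speeds flipping of a recombination array, read by NGS. The value is the raw area under the fraction-flipped curve over 0-4 h after rhamnose induction (AUC4h), with ≥20 reads per time point. It is not background-subtracted; inactive controls average about 0.047.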
# 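Further: Bxb1 expression induced with 0.2% (w/v) L-rhamnose at OD600 near 0.5, cultures sampled hourly, flipped fraction per protease–substrate barcode pair counted by paired-end Illumina sequencing.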
variant,measurement,value
MGESLFKGPRDYNPISSSICHLTNESDGHTTSLYGIGFGPFIITNKHLFRRNNGTLVVQSLHGVFKVKDTTTLQQHLVDGRDMIIIRMPKDFPPFPQKLKFREPQREERICLVTTNFQTKSMSSMVSDTSCTFPSGDGAFWKHWIQTKDGQCGSPLVSTRDGFIVGIHSASNFTNTNNYFTSVPKNFMELLTNQEAQQWVSGWRLNADSVLWGGHKVFMVKPEEPFQPVKEATQL [I139A],area with substrate ENAYFQS,0.0686
same,area with substrate ENDYFQS,0.0511
same,area with substrate ENEYFQS,0.0495
same,area with substrate ENHYFQS,0.182
same,area with substrate ENMYFQS,0.0818
same,area with substrate ENNYFQS,0.0604
same,area with substrate ENQYFQS,0.0665
same,area with substrate ENSYFQS,0.07
same,area with substrate ENVYFQS,0.0545
same,area with substrate ENYYFQS,0.048
MGESLFKGPRDYNPISSSICHLTNESDGHTTSLYGIGFGPFIITNKHLFRRNNGTLVVQSLHGVFKVKDTTTLQQHLVDGRDMIIIRMPKDFPPFPQKLKFREPQREERICLVTTNFQTKSMSSMVSDTSCTFPSGDGSFWKHWIQTKDGQCGSPLVSTRDGFIVGIHSASNFTNTNNYFTSVPKNFMELLTNQEAQQWVSGWRLNADSVLWGGHKVFMVKPEEPFQPVKEATQL [I139S],area with substrate ENAYFQS,0.0817
same,area with substrate ENCYFQS,0.0548
same,area with substrate ENDYFQS,0.0575
same,area with substrate ENEYFQS,0.062
same,area with substrate ENGYFQS,0.0505
same,area with substrate ENIYFQS,0.129
same,area with substrate ENKYFQS,0.0455
same,area with substrate ENMYFQS,0.0856
same,area with substrate ENNYFQS,0.0642
same,area with substrate ENQYFQS,0.0627
same,area with substrate ENRYFQS,0.0587
same,area with substrate ENSYFQS,0.0568
same,area with substrate ENWYFQS,0.0546
same,area with substrate ENYYFQS,0.08
MGESLFKGPRDYNPISSSICHLTNESDGHTTSLYGIGFGPFIITNKHLFRRNNGTLVVQSLHGVFKVKDTTTLQQHLVDGRDMIIIRMPKDFPPFPQKLKFREPQREERICLVTTNFQTKSMSSMVSDTSCTFPSGDGICWKHWIQTKDGQCGSPLVSTRDGFIVGIHSASNFTNTNNYFTSVPKNFMELLTNQEAQQWVSGWRLNADSVLWGGHKVFMVKPEEPFQPVKEATQL [F140C],area with substrate ENAYFQS,0.0613
same,area with substrate ENDYFQS,0.0582
same,area with substrate ENEYFQS,0.0693
same,area with substrate ENFYFQS,0.0621
same,area with substrate ENGYFQS,0.0058
same,area with substrate ENHYFQS,0.0568
same,area with substrate ENIYFQS,0.0934
same,area with substrate ENMYFQS,0.0623
same,area with substrate ENNYFQS,0.064
same,area with substrate ENPYFQS,0.0757
same,area with substrate ENQYFQS,0.0779
same,area with substrate ENRYFQS,0.0593
same,area with substrate ENSYFQS,0.0646
same,area with substrate ENTYFQS,0.0308
same,area with substrate ENVYFQS,0.0413
same,area with substrate ENWYFQS,0.064
same,area with substrate ENYYFQS,0.0555
MGESLFKGPRDYNPISSSICHLTNESDGHTTSLYGIGFGPFIITNKHLFRRNNGTLVVQSLHGVFKVKDTTTLQQHLVDGRDMIIIRMPKDFPPFPQKLKFREPQREERICLVTTNFQTKSMSSMVSDTSCTFPSGDGIFMKHWIQTKDGQCGSPLVSTRDGFIVGIHSASNFTNTNNYFTSVPKNFMELLTNQEAQQWVSGWRLNADSVLWGGHKVFMVKPEEPFQPVKEATQL [W141M],area with substrate ENAYFQS,0.0548
same,area with substrate ENCYFQS,0.0568
same,area with substrate ENDYFQS,0.0591
same,area with substrate ENEYFQS,0.0515
same,area with substrate ENFYFQS,0.0568
same,area with substrate ENIYFQS,0.0713
same,area with substrate ENNYFQS,0.0662
same,area with substrate ENPYFQS,0.0605
same,area with substrate ENQYFQS,0.0531
same,area with substrate ENRYFQS,0.0606
same,area with substrate ENSYFQS,0.0581
same,area with substrate ENTYFQS,0.0432
same,area with substrate ENVYFQS,0.0674
same,area with substrate ENYYFQS,0.0533
MGESLFKGPRDYNPISSSICHLTNESDGHTTSLYGIGFGPFIITNKHLFRRNNGTLVVQSLHGVFKVKDTTTLQQHLVDGRDMIIIRMPKDFPPFPQKLKFREPQREERICLVTTNFQTKSMSSMVSDTSCTFPSGDGIFWEHWIQTKDGQCGSPLVSTRDGFIVGIHSASNFTNTNNYFTSVPKNFMELLTNQEAQQWVSGWRLNADSVLWGGHKVFMVKPEEPFQPVKEATQL [K142E],area with substrate ENAYFQS,0.0628
same,area with substrate ENCYFQS,0.0678
same,area with substrate ENDYFQS,0.059
same,area with substrate ENEYFQS,0.0602
same,area with substrate ENFYFQS,0.0603
same,area with substrate ENGYFQS,0.0682
same,area with substrate ENHYFQS,0.0448
same,area with substrate ENKYFQS,0.0625
same,area with substrate ENMYFQS,0.0544
same,area with substrate ENNYFQS,0.0687
same,area with substrate ENQYFQS,0.0615
same,area with substrate ENRYFQS,0.0621
same,area with substrate ENSYFQS,0.0613
same,area with substrate ENVYFQS,0.0678
same,area with substrate ENWYFQS,0.0082
same,area with substrate ENYYFQS,0.0424
MGESLFKGPRDYNPISSSICHLTNESDGHTTSLYGIGFGPFIITNKHLFRRNNGTLVVQSLHGVFKVKDTTTLQQHLVDGRDMIIIRMPKDFPPFPQKLKFREPQREERICLVTTNFQTKSMSSMVSDTSCTFPSGDGIFWFHWIQTKDGQCGSPLVSTRDGFIVGIHSASNFTNTNNYFTSVPKNFMELLTNQEAQQWVSGWRLNADSVLWGGHKVFMVKPEEPFQPVKEATQL [K142F],area with substrate ENAYFQS,0.0489
same,area with substrate ENDYFQS,0.0582
same,area with substrate ENEYFQS,0.0628
same,area with substrate ENGYFQS,0.0598
same,area with substrate ENHYFQS,0.0567
same,area with substrate ENIYFQS,0.0974
same,area with substrate ENMYFQS,0.0806
same,area with substrate ENNYFQS,0.0444
same,area with substrate ENQYFQS,0.0586
same,area with substrate ENRYFQS,0.0514
same,area with substrate ENTYFQS,0.0577
same,area with substrate ENVYFQS,0.0852
same,area with substrate ENYYFQS,0.0753
MGESLFKGPRDYNPISSSICHLTNESDGHTTSLYGIGFGPFIITNKHLFRRNNGTLVVQSLHGVFKVKDTTTLQQHLVDGRDMIIIRMPKDFPPFPQKLKFREPQREERICLVTTNFQTKSMSSMVSDTSCTFPSGDGIFWSHWIQTKDGQCGSPLVSTRDGFIVGIHSASNFTNTNNYFTSVPKNFMELLTNQEAQQWVSGWRLNADSVLWGGHKVFMVKPEEPFQPVKEATQL [K142S],area with substrate ENAYFQS,0.065
same,area with substrate ENCYFQS,0.0777
same,area with substrate ENDYFQS,0.0632
same,area with substrate ENEYFQS,0.0654
same,area with substrate ENGYFQS,0.106
same,area with substrate ENIYFQS,0.11
same,area with substrate ENKYFQS,0.0652
same,area with substrate ENMYFQS,0.08
same,area with substrate ENNYFQS,0.0635
same,area with substrate ENPYFQS,0.0626
same,area with substrate ENQYFQS,0.0671
same,area with substrate ENRYFQS,0.0931
same,area with substrate ENSYFQS,0.06
same,area with substrate ENTYFQS,0.0612
same,area with substrate ENVYFQS,0.0832
same,area with substrate ENYYFQS,0.0587
MGESLFKGPRDYNPISSSICHLTNESDGHTTSLYGIGFGPFIITNKHLFRRNNGTLVVQSLHGVFKVKDTTTLQQHLVDGRDMIIIRMPKDFPPFPQKLKFREPQREERICLVTTNFQTKSMSSMVSDTSCTFPSGDGIFWTHWIQTKDGQCGSPLVSTRDGFIVGIHSASNFTNTNNYFTSVPKNFMELLTNQEAQQWVSGWRLNADSVLWGGHKVFMVKPEEPFQPVKEATQL [K142T],area with substrate ENAYFQS,0.0463
same,area with substrate ENCYFQS,0.065
same,area with substrate ENDYFQS,0.0561
same,area with substrate ENFYFQS,0.0596
same,area with substrate ENGYFQS,0.0681
same,area with substrate ENHYFQS,0.0606
same,area with substrate ENIYFQS,0.105
same,area with substrate ENKYFQS,0.0578
same,area with substrate ENMYFQS,0.0741
same,area with substrate ENNYFQS,0.0663
same,area with substrate ENPYFQS,0.0422
same,area with substrate ENQYFQS,0.0659
same,area with substrate ENRYFQS,0.0671
same,area with substrate ENSYFQS,0.0865
same,area with substrate ENTYFQS,0.0604
same,area with substrate ENVYFQS,0.0671
same,area with substrate ENYYFQS,0.0815
MGESLFKGPRDYNPISSSICHLTNESDGHTTSLYGIGFGPFIITNKHLFRRNNGTLVVQSLHGVFKVKDTTTLQQHLVDGRDMIIIRMPKDFPPFPQKLKFREPQREERICLVTTNFQTKSMSSMVSDTSCTFPSGDGIFWKAWIQTKDGQCGSPLVSTRDGFIVGIHSASNFTNTNNYFTSVPKNFMELLTNQEAQQWVSGWRLNADSVLWGGHKVFMVKPEEPFQPVKEATQL [H143A],area with substrate ENAYFQS,0.058
same,area with substrate ENCYFQS,0.0579
same,area with substrate ENDYFQS,0.0646
same,area with substrate ENEYFQS,0.0632
same,area with substrate ENFYFQS,0.0618
same,area with substrate ENGYFQS,0.0717
same,area with substrate ENHYFQS,0.0574
same,area with substrate ENIYFQS,0.0798
same,area with substrate ENMYFQS,0.0634
same,area with substrate ENNYFQS,0.0771
same,area with substrate ENPYFQS,0.0491
same,area with substrate ENQYFQS,0.0627
same,area with substrate ENRYFQS,0.0636
same,area with substrate ENSYFQS,0.0623
same,area with substrate ENTYFQS,0.0647
same,area with substrate ENVYFQS,0.0674
same,area with substrate ENYYFQS,0.0616
